# Reference: the supplement of paper PMC8728848
# The list shows a part of the results.
# B1: PNGase F (Flavobacterium meningosepticum) (protein)
# chain: GIPAPADNTVNIKTFDKVKNAFGDGLSQSAEGTFTFPADVTAVKTIKMFIKNECPNKTCDEWDRYANVYVKNKTTGEWYEIGRFITPYWVGTEKLPRGLEIDVTDFKSLLSGNTELKIYTETWLAKGREYSVDFDIVYGTPDYKYSAVVPVVQYNKSSIDGVPYGKAHTLALKKNIQLPTNTEKAYLRTTISGWGHAKPYDAGSRGCAEWCFRTHTIAINNSNTFQHQLGALGCSANPINNQSPGNWTPDRAGWCPGMAVPTRIDVLNNSLIGSTFSYEYKFQNWTNNGTNGDAFYAISSFVIAKSNTPISAPVVTNLDPHHHHHH
# Key:
# Experiment in all cases: glycan array binding signal (z-score within array); higher = stronger binding
# Details in all cases: glycan notation: IUPAC condensed, linker removed
# [1] = biological target: Fuc(a1-2)[Gal(a1-3)]Gal(b1-4)GlcNAc(b1-2)Man(a1-3)[Fuc(a1-2)[Gal(a1-3)]Gal(b1-4)GlcNAc(b1-2)Man(a1-6)]Man(b1-4)GlcNAc(b1-4)[Fuc(a1-6)]GlcNAc
# Method in brief: (§1)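 Glycan array binding is given as a within-array Z-score, which can be read as non-binding when negative. The arrays, 3228 of them, came from the Consortium for Functional Glycomics database and were retained only where the protein sequence was available. Z-scores were averaged across arrays of the same protein sequence at different concentrations or buffers and across linkers.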
# [2] = biological target: Fuc(a1-2)[Gal(a1-3)]Gal(b1-4)GlcNAc(b1-3)GalNAc
# Method in brief: as §1
# [3] = biological target: Fuc(a1-2)[Gal(a1-3)]Gal(b1-4)GlcNAc(b1-3)[Fuc(a1-2)[Gal(a1-3)]Gal(b1-4)GlcNAc(b1-6)]GalNAc
# Method in brief: as §1
# [4] = biological target: Fuc(a1-2)[Gal(a1-3)]Gal(b1-4)GlcNAc(b1-6)GalNAc
# Method in brief: as §1
# [5] = biological target: Fuc(a1-2)[Gal(a1-3)]Gal(b1-4)[Fuc(a1-3)]Glc
# Method in brief: as §1
# [6] = biological target: Fuc(a1-2)[Gal(a1-3)]Gal(b1-4)[Fuc(a1-3)]GlcNAc
# Method in brief: as §1
# [7] = biological target: Fuc(a1-2)[Gal(a1-3)]Gal(b1-4)[Fuc(a1-3)]GlcNAc(b1-3)GalNAc
# Method in brief: as §1
# [8] = biological target: Fuc(a1-2)[Gal(a1-4)]Gal(b1-4)GlcNAc
# Method in brief: as §1
# [9] = biological target: Fuc(a1-2)[GalNAc(a1-3)]Gal
# Method in brief: as §1
# [10] = biological target: Fuc(a1-2)[GalNAc(a1-3)]Gal(b1-3)GalNAc(a1-3)[Fuc(a1-2)]Gal(b1-4)GlcNAc
# Method in brief: as §1
# [11] = biological target: Fuc(a1-2)[GalNAc(a1-3)]Gal(b1-3)GalNAc(b1-3)Gal(a1-4)Gal(b1-4)Glc
# Method in brief: as §1
# [12] = biological target: Fuc(a1-2)[GalNAc(a1-3)]Gal(b1-3)GlcNAc
# Method in brief: as §1
# [13] = biological target: Fuc(a1-2)[GalNAc(a1-3)]Gal(b1-3)GlcNAc(b1-2)Man(a1-3)[Fuc(a1-2)[GalNAc(a1-3)]Gal(b1-3)GlcNAc(b1-2)Man(a1-6)]Man(b1-4)GlcNAc(b1-4)GlcNAc
# Method in brief: as §1
# [14] = biological target: Fuc(a1-2)[GalNAc(a1-3)]Gal(b1-3)GlcNAc(b1-2)Man(a1-3)[Fuc(a1-2)[GalNAc(a1-3)]Gal(b1-3)GlcNAc(b1-2)Man(a1-6)]Man(b1-4)GlcNAc(b1-4)[Fuc(a1-6)]GlcNAc
# Method in brief: as §1
# [15] = biological target: Fuc(a1-2)[GalNAc(a1-3)]Gal(b1-3)GlcNAc(b1-3)GalNAc
# Method in brief: as §1
# [16] = biological target: Fuc(a1-2)[GalNAc(a1-3)]Gal(b1-3)GlcNAc(b1-6)GalNAc
# Method in brief: as §1
# [17] = biological target: Fuc(a1-2)[GalNAc(a1-3)]Gal(b1-4)Glc
# Method in brief: as §1
# [18] = biological target: Fuc(a1-2)[GalNAc(a1-3)]Gal(b1-4)GlcNAc
# Method in brief: as §1
# [19] = biological target: Fuc(a1-2)[GalNAc(a1-3)]Gal(b1-4)GlcNAc(b1-2)Man
# Method in brief: as §1
# [20] = biological target: Fuc(a1-2)[GalNAc(a1-3)]Gal(b1-4)GlcNAc(b1-2)Man(a1-3)[Fuc(a1-2)[GalNAc(a1-3)]Gal(b1-4)GlcNAc(b1-2)Man(a1-6)]Man(b1-4)GlcNAc(b1-4)GlcNAc
# Method in brief: as §1
# [21] = biological target: Fuc(a1-2)[GalNAc(a1-3)]Gal(b1-4)GlcNAc(b1-2)Man(a1-3)[Fuc(a1-2)[GalNAc(a1-3)]Gal(b1-4)GlcNAc(b1-2)Man(a1-6)]Man(b1-4)GlcNAc(b1-4)[Fuc(a1-6)]GlcNAc
# Method in brief: as §1
# [22] = biological target: Fuc(a1-2)[GalNAc(a1-3)]Gal(b1-4)GlcNAc(b1-3)Gal(b1-4)GlcNAc
# Method in brief: as §1
# [23] = biological target: Fuc(a1-2)[GalNAc(a1-3)]Gal(b1-4)GlcNAc(b1-3)Gal(b1-4)GlcNAc(b1-3)Gal(b1-4)GlcNAc
# Method in brief: as §1
# [24] = biological target: Fuc(a1-2)[GalNAc(a1-3)]Gal(b1-4)GlcNAc(b1-3)GalNAc
# Method in brief: as §1
# [25] = biological target: Fuc(a1-2)[GalNAc(a1-3)]Gal(b1-4)GlcNAc(b1-3)[Fuc(a1-2)[GalNAc(a1-3)]Gal(b1-4)GlcNAc(b1-6)]GalNAc
# Method in brief: as §1
# [26] = biological target: Fuc(a1-2)[GalNAc(a1-3)]Gal(b1-4)GlcNAc(b1-6)GalNAc
# Method in brief: as §1
# [27] = biological target: Fuc(a1-2)[GalNAc(a1-3)]Gal(b1-4)[Fuc(a1-3)]GlcNAc
# Method in brief: as §1
# [28] = biological target: Fuc(a1-2)[GalNAc(a1-3)]Gal(b1-4)[Fuc(a1-3)]GlcNAc(b1-3)GalNAc
# Method in brief: as §1
# [29] = biological target: Fuc(a1-2)[GalNAc(a1-4)]Gal(b1-4)GlcNAc
# Method in brief: as §1
# [30] = biological target: Fuc(a1-2)[GalNAc(b1-3)]Gal
# Method in brief: as §1
# [31] = biological target: Fuc(a1-3)GlcNAc
# Method in brief: as §1
# [32] = biological target: Fuc(a1-3)[Gal(b1-4)]Glc6S
# Method in brief: as §1
# [33] = biological target: Fuc(a1-3)[Gal(b1-4)]GlcNAc
# Method in brief: as §1
# [34] = biological target: Fuc(a1-3)[Gal(b1-4)]GlcNAc(b1-2)Man
# Method in brief: as §1
# [35] = biological target: Fuc(a1-3)[Gal(b1-4)]GlcNAc(b1-2)Man(a1-3)[Fuc(a1-3)[Gal(b1-4)]GlcNAc(b1-2)Man(a1-6)]Man(b1-4)GlcNAc(b1-4)GlcNAc
# Method in brief: as §1
# [36] = biological target: Fuc(a1-3)[Gal(b1-4)]GlcNAc(b1-2)Man(a1-3)[Fuc(a1-3)[Gal(b1-4)]GlcNAc(b1-2)Man(a1-6)]Man(b1-4)GlcNAc(b1-4)[Fuc(a1-6)]GlcNAc
# Method in brief: as §1
# [37] = biological target: Fuc(a1-3)[Gal(b1-4)]GlcNAc(b1-3)Gal(b1-3)[Fuc(a1-4)]GlcNAc
# Method in brief: as §1
binder,measurement,setting,value
B1,glycan array binding signal (z-score),[1],-0.229
same,glycan array binding signal (z-score),[2],-0.226
same,glycan array binding signal (z-score),[3],1.46
same,glycan array binding signal (z-score),[4],0.476
same,glycan array binding signal (z-score),[5],-0.16
same,glycan array binding signal (z-score),[6],-0.164
same,glycan array binding signal (z-score),[7],-0.211
same,glycan array binding signal (z-score),[8],-0.115
same,glycan array binding signal (z-score),[9],-0.284
same,glycan array binding signal (z-score),[10],-0.27
same,glycan array binding signal (z-score),[11],-0.157
same,glycan array binding signal (z-score),[12],-0.123
same,glycan array binding signal (z-score),[13],-0.265
same,glycan array binding signal (z-score),[14],-0.189
same,glycan array binding signal (z-score),[15],-0.065
same,glycan array binding signal (z-score),[16],-0.178
same,glycan array binding signal (z-score),[17],-0.284
same,glycan array binding signal (z-score),[18],-0.261
same,glycan array binding signal (z-score),[19],-0.182
same,glycan array binding signal (z-score),[20],-0.463
same,glycan array binding signal (z-score),[21],-0.118
same,glycan array binding signal (z-score),[22],-0.363
same,glycan array binding signal (z-score),[23],-0.262
same,glycan array binding signal (z-score),[24],-0.167
same,glycan array binding signal (z-score),[25],-0.258
same,glycan array binding signal (z-score),[26],-0.348
same,glycan array binding signal (z-score),[27],-0.141
same,glycan array binding signal (z-score),[28],-0.212
same,glycan array binding signal (z-score),[29],-0.274
same,glycan array binding signal (z-score),[30],-0.254
same,glycan array binding signal (z-score),[31],0.009
same,glycan array binding signal (z-score),[32],0.669
same,glycan array binding signal (z-score),[33],0.02
same,glycan array binding signal (z-score),[34],0.163
same,glycan array binding signal (z-score),[35],-0.072
same,glycan array binding signal (z-score),[36],-0.2
same,glycan array binding signal (z-score),[37],0.434
